The source of these data is PubChem BioAssay AID488969 (Vanderbilt High Throughput Screening Facility, 2010).

Whole data set: some 110,000 compounds, median “z-score” near -0.1, cut for the highest 2% near 2. The list shows a part of the results.

For the assay, the target named is Metabotropic glutamate receptor 8 (Rattus norvegicus) (UniProt P70579). Put plainly: rat mGluR8 modulators via GIRK flux, primary screen, cell-based, thallium flux, HTS (AID 488969). The note with it: HEK293 rat mGluR8, GIRK (G protein-gated inwardly rectifying potassium channel) thallium flux, FluoZin2; at 10 µM; stronger effect = higher value; submaximal glutamate (EC20) added with thallium.
Chain of UniProt P70579 (P70579 whole entry, looked up): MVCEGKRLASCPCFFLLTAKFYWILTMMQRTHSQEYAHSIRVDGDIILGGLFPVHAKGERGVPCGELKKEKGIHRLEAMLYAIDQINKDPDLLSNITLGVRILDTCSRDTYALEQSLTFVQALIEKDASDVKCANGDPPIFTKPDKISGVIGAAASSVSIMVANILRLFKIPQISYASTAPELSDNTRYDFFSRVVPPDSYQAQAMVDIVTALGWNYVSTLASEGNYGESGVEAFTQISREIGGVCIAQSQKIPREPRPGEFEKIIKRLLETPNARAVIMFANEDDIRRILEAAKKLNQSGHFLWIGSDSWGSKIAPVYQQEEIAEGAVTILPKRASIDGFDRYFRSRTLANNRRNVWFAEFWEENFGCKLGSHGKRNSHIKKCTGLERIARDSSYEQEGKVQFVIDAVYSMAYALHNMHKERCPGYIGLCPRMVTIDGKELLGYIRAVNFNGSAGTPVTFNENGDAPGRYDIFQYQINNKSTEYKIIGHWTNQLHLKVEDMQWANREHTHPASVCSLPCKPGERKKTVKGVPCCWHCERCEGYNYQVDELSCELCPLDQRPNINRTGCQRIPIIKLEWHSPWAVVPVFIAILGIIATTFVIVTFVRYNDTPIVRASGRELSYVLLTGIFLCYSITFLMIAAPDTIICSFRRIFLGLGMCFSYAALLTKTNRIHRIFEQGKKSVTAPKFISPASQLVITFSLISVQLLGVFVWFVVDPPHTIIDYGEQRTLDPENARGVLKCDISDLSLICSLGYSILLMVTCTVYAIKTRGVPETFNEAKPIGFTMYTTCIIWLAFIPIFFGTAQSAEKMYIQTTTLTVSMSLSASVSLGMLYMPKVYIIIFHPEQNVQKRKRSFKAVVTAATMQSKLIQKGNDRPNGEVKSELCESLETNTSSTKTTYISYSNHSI
As to `Cc1ccc(-n2ncc3c(N4CCN(c5ccccc5)CC4)ncnc32)c(C)c1`, the z-score came to 0.679.
Consider `COc1ccc(CCNc2c([N+](=O)[O-])c(=O)oc3ccccc23)cc1OC`, for which the z-score was -0.208.
With `COC(=O)Cn1c(=NC(=O)c2cc(OC)cc(OC)c2)sc2cc(OC)ccc21` the figure was -0.00301; with `COc1ccc(OC)c(C2=NNC(=NCc3ccc4c(c3)OCO4)SC2)c1`, 0.356.
For `COCCn1c(-c2ccc(OC(F)(F)C(F)C(F)(F)F)cc2)nc2c1c(=O)[nH]c(=O)n2CC(C)C` (stereo unspecified) the value was 0.0959; for `O=C(Cc1ccccc1)NCCc1cn2ccsc2n1`, 0.0181; for `Cc1ccc(CSc2nnc(-c3ccco3)o2)cc1`, 0.081.
With `O=C(CN(C(=O)CSc1nc2ccccc2o1)c1ccccc1F)NC1CCCCC1` the figure was -0.692; with `CC(C)OCCCNCC(O)c1ccccc1` (stereo unspecified), -0.434.
Compound `COc1ccc(-c2nnc(SCC(=O)NC(C)c3ccccc3)o2)cc1OC` (stereo unspecified) came in with a z-score of -0.12.
For `Cc1nn(C(=O)CCCC(=O)n2nc(C)c(Cl)c2C)c(C)c1Cl` the value was 0.437; for `CCOC(=O)N1CCN(c2c(N3CCN(c4cc(C)ccc4C)CC3)c(=O)c2=O)CC1`, 0.0873; for `CCOc1ccccc1NC(=O)C(=O)/C=C(\O)c1cc(OC)ccc1OC`, 1.35.
With `Cc1cc(=O)[nH]c(SCCOc2ccc(OC(C)C)cc2)n1` the figure was -0.838.
`O=C(CN1C(=O)c2ccccc2C1=O)Nc1ccccc1C(=O)NC1CCCCC1` registered a z-score of -0.445.
For `CC(CNc1ccc([N+](=O)[O-])c2cccnc12)Nc1c([N+](=O)[O-])cc(C(F)(F)F)cc1[N+](=O)[O-]` (stereo unspecified) the value was -0.0979; for `COc1ccc(NC(=O)COC(=O)/C=C/c2ccc(OC)c(S(=O)(=O)N3CCOCC3)c2)cc1`, -0.355.
`CC(=O)OC1COC(n2ccc3cc([N+](=O)[O-])ccc32)C(OC(C)=O)C1OC(C)=O` (stereo unspecified) yielded a z-score of 0.0746.
With `CC(C)NC(=S)N(C)C1(c2ccccc2Cl)CCCCC1=O` (stereo unspecified) the figure was -0.22.
For `COc1ccc(C2=NCC(CSc3nccc(=O)[nH]3)S2)cc1` (stereo unspecified) the value was -1.19; for `COC(=O)C1=C(C)N(CCc2ccccc2)C(=O)/C1=C\c1ccco1`, -0.225; for `CCCC(=O)Nc1sc(C)c(-c2ccc(C(C)CC)cc2)c1C#N` (stereo unspecified), 0.288.
For `Nc1c(N=Nc2cccc(Cl)c2)c(=O)[nH]n1-c1ccccc1` the value was -0.199; for `CC1CC(=O)NN=C1c1ccc(N)c([N+](=O)[O-])c1` (stereo unspecified), 0.0922.
In the case of `Nc1cc(N)cc(-c2nc3ccccc3[nH]2)c1`, the z-score amounted to 0.818.
`CCOc1cccc(-c2nnc(SCC(=O)Nc3ccc(OC)c(OC)c3)n2N)c1` returned a z-score of 0.582.
With `COc1ccc(C2CN=NC23CCCc2ccccc2C3=O)cc1` (stereo unspecified) the figure was -0.251; with `Cc1ccccc1NC(=S)NC1CCN(Cc2ccccc2)CC1`, 0.33; with `CCOC(=O)CSc1nc(C(C)C)nc2ccccc12`, 0.0609.
With `COc1ccc(C(=O)c2cc3ccc(O)cc3oc2=O)cc1` the figure was 0.696; with `COC(=O)[C@@H](NC(=O)NC1CCN(Cc2ccccc2)CC1)C(C)C`, -0.196.
For `COc1ccc(C(C(=O)NC(C)(C)C)N(C(=O)CNC(=O)c2cccs2)c2ccc(C(C)C)cc2)cc1OC` (stereo unspecified) the value was -0.16; for `O=C(NCc1cccnc1)c1csc2c1CCCC2`, 0.0876; for `CCOc1ccccc1NC(=O)N1CCC(C(=O)c2ccc(F)cc2)CC1`, -0.436.
As for `O=C(OCc1nc2ccc(Cl)cc2n1CCO)c1ccccc1C(=O)c1ccccc1`, the z-score is -0.435.
With `Cc1ccccc1-n1c(N)cc(=O)[nH]c1=S` the figure was -0.603.
For `COc1cc(/C=N/NC(=O)CCn2c3ccccc3c3ccccc32)ccc1O` the value was -0.393; for `Oc1ccccc1C1=Nc2ccccc2N=C(c2cccs2)C1`, 0.0299; for `Cc1cc(C)cc(NC(=O)CN2CCC(NC(=O)Cc3ccccc3)CC2)c1`, -0.23.
For `COc1ccccc1NC(=O)CN(Cc1ccccc1)S(C)(=O)=O` the value was -0.226; for `Cc1sc2nc3n(c(=O)c2c1C)NC(=O)CC3`, -0.373.
`N#CC1=C(N)SC(N)=C(C#N)C1c1ccc(C(F)(F)F)cc1` showed a z-score of 0.26.
For `CC(NC(=O)Nc1ccc(F)cc1)C(c1cccs1)N1CCCC1` (stereo unspecified) the value was 0.497; for `Cc1nc(-c2c(C(F)(F)F)noc2-c2ccc(O)cc2O)cs1`, -0.14.
Compound `COc1ccc(C2C(C(C)=O)=C(O)C(=O)N2Cc2cccnc2)cc1` (stereo unspecified) showed a z-score of 0.978.
For `COc1ccc(CN2C(=O)c3cccnc3C2Nc2ccc(C)cc2)cc1` (stereo unspecified) the value was -0.235.
For `COc1cccc2c(=O)c(C(=O)O)c[nH]c12` the value was -0.0418.
For `Cc1ccccc1CSc1nncn1N` the value was -0.5; for `CCN(CC)C(=O)CN(c1cc2c(cc1OC)oc1ccccc12)S(=O)(=O)c1ccccc1`, 0.226.
In turn, `O=C(NCCSCc1ccccc1)c1ccc(Cl)c(S(=O)(=O)N2CCOCC2)c1` yielded a z-score of -0.536.
In the case of `CCCCC(=O)Nc1ccc(C(=O)N2CCC(C(=O)OCC)CC2)cc1`, the z-score is -0.394.
`Cc1cccc(-n2c(-c3ccoc3C)n[nH]c2=S)c1` displayed a z-score of -0.0319.
For `CCNc1nc(NC(C)CC)nc(Oc2ccc(=O)[nH]n2)n1` (stereo unspecified) the value was -0.162; for `CCOC(=O)C1CCCN(S(=O)(=O)c2ccc(OC)cc2)C1` (stereo unspecified), 0.164.
For `S=C(c1cccs1)N1CCCC1` the value was 0.128; for `CC(C(=O)Nc1cc([N+](=O)[O-])ccc1Cl)N1CCN(c2ccccc2O)CC1` (stereo unspecified), -1.94.
With `Cc1ccc(C)c(-n2c(SCC(=O)Nc3nnc(C)s3)nnc2-c2ccoc2C)c1` the figure was -0.167; with `COc1cc(/C=C/C(=O)OCC(=O)NC(=O)NC23CC4CC(CC(C4)C2)C3)ccc1OCC#N`, -1.04.
In the case of `CCC(C)c1ccc(NC(=O)C2CCN(c3ccc(C(F)(F)F)cn3)CC2)cc1` (stereo unspecified), the z-score was -0.0918.
With `Cn1c(=NC(=O)C2CCN(S(=O)(=O)c3cccs3)CC2)sc2ccccc21` the figure was 0.924.
For `CCN(CC)c1ccc(C(=O)OCC(=O)Nc2cc3oc4ccccc4c3cc2OC)cc1` the value was -0.23; for `CC1CCCC(NC(=O)COC(=O)CCC2CCCC2)C1C` (stereo unspecified), -0.101; for `CC(C)(C)NC(=S)NCc1ccco1`, -0.0799.
Compound `Cc1cccc(C2NS(=O)(=O)N=C2N)c1` (stereo unspecified) yielded a z-score of 0.106.
As to `O=C(O)CCC1(C(=O)O)OCCc2ccccc21` (stereo unspecified), the z-score amounted to 0.0687.
With `CCOC(=O)c1c(C)[nH]c(C(=O)Cn2c(=O)c3c(ncn3CC)n(Cc3ccccc3)c2=O)c1C` the figure was -0.0206; with `O=C(COc1cccc2ccccc12)N1CCN(c2ccccn2)CC1`, 0.0163.
With `Cc1ccc(C)c(NC(=O)CSc2nnc(C)c(=O)n2N)c1` the figure was -0.19.
With `CCC1(C)Cc2c(c(=O)n(-c3ccccc3)c3ncnc(N)c23)CO1` (stereo unspecified) the figure was 0.727.
Regarding `O=C(COc1ccccc1-c1ccccc1)N/N=C/c1ccc2ccccc2c1`, the z-score was -0.0388.
For `COc1cccc(NC(=O)CCN2C(=O)c3ccccc3S2(=O)=O)c1` the value was -0.282; for `CCOc1ccc2nc(SCC(=O)Nc3ccc4c(c3)OCO4)sc2c1`, -0.00217; for `Cc1ccc(NC(=S)/C(=C(\[O-])c2ccc(C)c([N+](=O)[O-])c2)[n+]2ccccc2)cc1C`, 0.0215.
With `O=C(NNC(=S)NCc1ccccc1)c1ccc(OC(F)F)cc1` the figure was 2.12; with `COc1ccccc1OCC(=O)Nc1nc(-c2ccc(S(=O)(=O)N3CCOCC3)cc2)cs1`, 0.0252; with `COc1ccc(NC(=O)OC(CN2CCCCC2)C(F)(F)F)cc1` (stereo unspecified), 0.0302.
As to `CN(CC(O)COc1c(F)cc(Br)cc1F)C1CCCCC1` (stereo unspecified), the z-score came to 0.202.
With `CCOc1cc(C(=O)Nc2nnc(C)s2)cc(OCC)c1OCC` the figure was 1.04.
In turn, `CCC1CCCCN1C(=O)CSc1nnc(CNC(=O)c2ccco2)o1` (stereo unspecified) showed a z-score of 0.0244.
For `COc1ccc(/C=N/N=C2/NC(=O)C(c3ccccc3)(c3ccccc3)S2)cc1` the value was -0.136; for `CC([NH2+][O-])C(C)(C)NO` (stereo unspecified), -0.189; for `CC(C)OCC(O)CN1CCNCC1` (stereo unspecified), -0.257.
As for `Cc1ccc(-c2noc(CN(C(=O)C34CC5CC(CC(C5)C3)C4)C(C)C)n2)cc1`, the z-score turned out to be 0.0589.
As for `Nc1nc2ccc(C(=O)NC3CCCCC3)cc2s1`, the z-score is -0.619.
With `C=CCOc1ccc(CNc2nn[nH]n2)cc1OC` the figure was -0.144; with `O=C(CN1CCCCC1)Nc1cc(Cl)ccc1Cl`, 0.443.
For `CN(C)CC1CCCCC1OC(=O)c1ccc(Cl)cc1` (stereo unspecified) the value was 0.182; for `C=C(C)C1Cc2c(C)nn(-c3cccc4ccccc34)c2C1` (stereo unspecified), -1.35; for `Cn1c(=O)n(C)c2cc(S(=O)(=O)Nc3ccccc3O)ccc21`, -0.188.
For `Cc1ccc2oc(=O)c3cnn(CC(=O)N4CCCCCC4)c3c2c1` the value was -0.256.
`COc1ccc(OC)c(NC(=O)Nc2cccc3ccccc23)c1` showed a z-score of -0.306.
For `CCC(=O)N1CCN(c2nc3ccccc3s2)CC1` the value was -0.0557; for `Cc1nc2c3ccccc3n(CCN3CCCCC3)c2s1`, 0.34; for `CCOC(=O)c1c(C)oc2c1c1c(c3ccccc32)OCN(Cc2ccccn2)C1`, -0.209.
With `O=C(Nc1ccc(Br)cc1)c1ccc(N2C(=O)C3CC=C(Cl)CC3C2=O)cc1` (stereo unspecified), the z-score is -0.122.
With `CCCOc1ccc(CC(=O)NNC(=S)Nc2ccccc2)cc1Br` the figure was 1.06.
With `COc1ccc(-c2nsc3c(N4CCN(C(=O)c5ccco5)CC4)ncnc23)cc1` the figure was -0.179.
With `COc1cc2c(C(=O)NCc3ccccn3)cn(C)c(=O)c2cc1OC` the figure was 0.285.
Compound `Clc1ccc(CN(Cc2ccccc2)C(c2cccs2)c2nnnn2C2CCCC2)cc1` (stereo unspecified) gave a z-score of -0.0933.
For `COC(=O)c1c(NC(=O)CSc2nnc(-c3ccco3)n2Cc2ccccc2)sc(C)c1C` the value was -0.23; for `CCOC(=O)c1c(C)nc2ccc(Cl)cc2c1-c1ccccc1`, -0.289; for `O=C(c1ccc(Br)o1)N(c1ccc(Br)cc1)C1C=CS(=O)(=O)C1` (stereo unspecified), 0.889.
With `COc1ccccc1NC(=O)c1nn(-c2ccc(Cl)cc2)ccc1=O` the figure was -0.217; with `COc1ccc(C)cc1NC(=O)C(OC(=O)CNC(=O)c1cc(C)cc(C)c1)c1ccccc1` (stereo unspecified), -0.0762.
With `Cc1ccnc(-n2c(CCN3C(=O)c4ccccc4C3=O)nc3ccccc3c2=O)c1` the figure was -0.208.
Compound `CCOC(=O)c1ccccc1NC(=O)CCNC(=O)Cn1cnc2ccccc2c1=O` registered a z-score of -0.535.
With `Cc1cccc(OCCC(=O)Nc2ccc(F)c(Cl)c2)c1` the figure was 1.34; with `CC1CN/C(=C\C(=O)c2ccc(Cl)cc2)C(=O)N1` (stereo unspecified), 0.105; with `COc1ccccc1-c1nnc(SCc2ccccn2)n1C`, 1.34.
With `COc1cccc(-c2nnc(NC(=O)c3ccc4ncsc4c3)o2)c1` the figure was 0.649.
As for `S=C(Nc1ccc(Cl)cc1)N1CCOCC1`, the z-score was 0.122.
